Experimental data reported in the RNAGym collection of RNA variant scans (doi:10.1093/nar/gkz1192).
The source gives no read counts; variants with many changes may rest on few reads.

B1: CPEB3 Ribozyme (parent)
chain: UAACAGGGGGCCACAGCAGAAGCGUUCACGUCGCAGCCCCUGUCAGAUUCUGGUGAAUCUGCGAAUUCUGCUGUAUAUCUC

Variants of: B1
Assay: self-cleavage, relative activity (ratio to wild type); higher = more cleavage; in vitro, sequencing
Outline: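 CPEB3 self-cleaving ribozyme mutant libraries were made by rounds of error-prone PCR, barcoded, and transcribed in vitro with T7 RNA polymerase for 5 hours at 37°C. Cleavage occurred during transcription and a 15 min DNase I step before EDTA stop. RNAs were reverse transcribed with template switching and Illumina-sequenced, with DNA sequencing mapping barcodes to variants. Relative activity is the variant's cleaved/total read fraction divided by wild type's (minimum 5 reads), averaged across three batches.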
A28C C39U U60C gave a self-cleavage of 0.11.
For U26C A45G A64G U67C, the self-cleavage was 0.09.
Work on U26C U51A G73U U76C U80A yielded a self-cleavage of 0.97.
Variant A28G C34A U41C A56U U66C C79U has a self-cleavage of 0.14.
With U26G U78C U80C the self-cleavage was 0.37.
Work on U26C C27U A65G U67C C79G yielded a self-cleavage of 0.11.
In the case of U26C A35G U41C G73A U76A, the self-cleavage is reported as 1.
Variant U26C U41A A65G U67C C81U has a self-cleavage of 0.25.
Variant A28G C32A U49C A56U U66C has a self-cleavage of 0.05.
With U26C U31A A56G the self-cleavage was 0.17.
For C27U U41C G42U A56G, the self-cleavage was 0.2.
In the case of U26A U69C U74G, the self-cleavage is reported as 0.67.
For U26C U67C U72C A77G, the self-cleavage was 0.11.
Work on U26C A28G U41A G73A yielded a self-cleavage of 0.48.
A28G A35G A45U A57G gave a self-cleavage of 0.12.
Variant A28C U49C U58A has a self-cleavage of 0.36.
U26C A56G U69C gave a self-cleavage of 0.31.
Variant A28G A65C U67C has a self-cleavage of 0.12.
In the case of C27G A45G A64U, the self-cleavage is reported as 0.1.
Work on U26C A28U U72C yielded a self-cleavage of 0.28.
In the case of C27U U49C U69A, the self-cleavage is reported as 0.13.
Variant U26C A47G A64G has a self-cleavage of 0.34.
Work on A28G A35G U41G A45G A65G U72A yielded a self-cleavage of 0.
With U26C G33A A47G the self-cleavage was 0.26.
In the case of U26C U31C U41C A65G, the self-cleavage is reported as 0.09.
Variant C27U G55U U80A has a self-cleavage of 0.17.
In the case of A28C U41C U54A, the self-cleavage is reported as 0.37.
Work on U26C C40U U43C A47G U76C U78C yielded a self-cleavage of 0.07.
In the case of C27A A28G A64G U67C, the self-cleavage is reported as 0.11.
A28G A56U U60A U66C U78C showed a self-cleavage of 0.23.
U26C U51A U80A showed a self-cleavage of 0.46.
For U26C A45G A47U U51A, the self-cleavage was 0.09.
U26C A47G U48C U69C showed a self-cleavage of 0.1.
In the case of A28C U78C U80C, the self-cleavage is reported as 0.37.
For C27U A35U U48A U66C, the self-cleavage was 0.16.
For U26C C37U C44A A45U A64G G70A, the self-cleavage was 0.05.
A28G C39A U54C U80C gave a self-cleavage of 0.48.
For U26C A28U A35U A47G U67C U72C, the self-cleavage was 0.09.
With C27U A35C U66C the self-cleavage was 0.17.
U26C A45G U72A A77U U80C showed a self-cleavage of 0.55.
With U26C A28U A47G A56U C62U C71A the self-cleavage was 0.09.
For U26C G42A U58C, the self-cleavage was 0.17.
U26C U43A U60C gave a self-cleavage of 0.21.
Variant U26C G52A U54C has a self-cleavage of 0.49.
Variant C27A G53U A56U A57G has a self-cleavage of 0.06.
Work on U26C A45G U49G U54C yielded a self-cleavage of 0.29.
For U26C A28U A47G G61C U72G A77U, the self-cleavage was 0.1.
Variant A28G A64G U78C has a self-cleavage of 0.36.
A28G A47U U48C U66C U72A U74C U76C gave a self-cleavage of 0.04.
Variant A28C A45G U74C has a self-cleavage of 0.6.
For C27U A64U U72C, the self-cleavage was 0.1.
Work on U26C U41C U60C yielded a self-cleavage of 0.18.
With U26G C38U U49A U54C the self-cleavage was 0.06.
Variant C27A A45U A64G has a self-cleavage of 0.13.
For U26C U31A U43C, the self-cleavage was 0.32.
Variant U26C C39A U41A U49C has a self-cleavage of 0.14.
A28C U31C A64U U66C U74C gave a self-cleavage of 0.2.
U26C U43A U49C U58C A64U U72C U74C gave a self-cleavage of 0.16.
A28C C44U C50A A65C C71G U80C gave a self-cleavage of 0.02.
For A28C G36U U60A, the self-cleavage was 0.34.
For A28G A45U A65G U74C, the self-cleavage was 0.2.
Variant U26C U31A A35G U43C C44U C71A U72G has a self-cleavage of 0.06.
With U26C C39G A45G the self-cleavage was 0.22.
Work on U26A U67C G73A yielded a self-cleavage of 0.34.
For U26C G36A U54C C81G, the self-cleavage was 0.18.
U26C A47G U54C A57G gave a self-cleavage of 0.07.
With U26C U31A U41C A77U U80C the self-cleavage was 0.24.
With A28G C32A G63A A65G U76C the self-cleavage was 0.11.
A28G A35U U43C A56U gave a self-cleavage of 0.07.
In the case of U26C U41A U54A, the self-cleavage is reported as 0.19.
U26G A28G G33C U48C U60C C71A showed a self-cleavage of 0.05.
In the case of U26G U41C C62U A64G A65G, the self-cleavage is reported as 0.07.
U26C A35U U72A gave a self-cleavage of 0.08.
Variant U26C C29A A35G U58C G63A U80C has a self-cleavage of 0.19.
Variant U26C G55U U72A U80A has a self-cleavage of 0.15.
With U26C U41A U48A the self-cleavage was 0.32.
Work on U26C A45G U49G U80C yielded a self-cleavage of 0.26.
In the case of U26C G30A U80G, the self-cleavage is reported as 0.06.
Variant U26C U41A A45U A64G has a self-cleavage of 0.44.
Variant A28C U43C A65C has a self-cleavage of 0.31.
With U26C A28G C34U U48C A64U the self-cleavage was 0.15.
With C27U A56G U60C U69A U74C A75G the self-cleavage was 0.11.
With U26C U41C U60C A77G the self-cleavage was 0.22.
In the case of U26C U41A U66C C71G U80G, the self-cleavage is reported as 0.07.
A28G C38U U60C U69C G70A showed a self-cleavage of 0.2.
For U26C C44A U69C, the self-cleavage was 0.28.
A28C U51A U60A A75G gave a self-cleavage of 0.18.
Variant U26C U51A U72A has a self-cleavage of 0.1.
U26C U72A A75U gave a self-cleavage of 0.57.
For U26C C71G U76C, the self-cleavage was 0.13.
For U26C U66G A75G, the self-cleavage was 0.07.
With U26G U41C C44G A45G A47G U69A U78C the self-cleavage was 0.
For C27U G33A U54A A64U U66C U78C, the self-cleavage was 0.06.
U26C G33U A35G U54C C71U showed a self-cleavage of 0.11.
For U26C U41C A64G A77G, the self-cleavage was 0.43.
U26G A35G U51A showed a self-cleavage of 0.43.
Work on U26C U43C G63A yielded a self-cleavage of 0.65.
U26C U51A U78A U80C showed a self-cleavage of 0.51.
For U26C G33C A47G, the self-cleavage was 0.15.
A28G A45G U51C A65U gave a self-cleavage of 0.12.
For A28G A35U U41C A47U C59G A64G U69A, the self-cleavage was 0.04.
Work on A28G A35G C62U U66C U72C yielded a self-cleavage of 0.12.
With U26C U51C G52U A56G the self-cleavage was 0.3.
A28G A47G U49A U60A U72C showed a self-cleavage of 0.06.
For U26C A45C A77G, the self-cleavage was 0.
For U26C A45G U60C G63U A64G U66C, the self-cleavage was 0.05.
In the case of A28G A47U A57G A64G U67C, the self-cleavage is reported as 0.5.
In the case of C27A U31C C37G A65G C68U, the self-cleavage is reported as 0.12.
Variant U26C C32G U48C U60A U67A C81U has a self-cleavage of 0.07.
Variant U26C A28U U43G has a self-cleavage of 0.34.
Work on U26C U41C A45U U67C yielded a self-cleavage of 0.16.
In the case of U26C G53A U54C C71A U72C, the self-cleavage is reported as 0.13.
Work on C27U U58C U72A U80A yielded a self-cleavage of 0.31.
Work on A28G C37U U60C A64G U67A U72A yielded a self-cleavage of 0.12.
U26C C40G U41C showed a self-cleavage of 0.14.
For A28G C32U U49C A65G, the self-cleavage was 0.14.
U26G A28G A35U U60C showed a self-cleavage of 0.14.
Work on C27A U31C U80C yielded a self-cleavage of 0.21.
For U26G U43A A47G, the self-cleavage was 0.05.
Work on A28G C40G A65G U78C yielded a self-cleavage of 0.05.
Variant U26C A47C G53A G63A C79A has a self-cleavage of 0.49.
U26C A28U U41C U48C showed a self-cleavage of 0.08.
Work on C27U C32A C50U U51G A65U yielded a self-cleavage of 0.04.
U26A U78C C79A gave a self-cleavage of 1.
A28G C29U U78C gave a self-cleavage of 0.15.
U26C U31C U66C A75G showed a self-cleavage of 0.13.
Variant U26C G53A U74A has a self-cleavage of 0.83.
U26C G36C U80A showed a self-cleavage of 0.48.
Variant U26C G33U U80C has a self-cleavage of 0.12.
In the case of U26C A56G U67C U69A, the self-cleavage is reported as 0.38.
U26C U54C U72A gave a self-cleavage of 0.19.
U26C A45G U69A A75G U78C gave a self-cleavage of 0.21.
U26C A35G A77G showed a self-cleavage of 1.12.
U26C C40U U80A gave a self-cleavage of 0.18.
With U26C C27U U54C U67A the self-cleavage was 0.16.
Work on A28G A35G U58C yielded a self-cleavage of 0.58.
In the case of U26G G30A C39U, the self-cleavage is reported as 0.43.
U26C G30U U54C U67C U80C gave a self-cleavage of 0.09.
Work on A28G A45G G55U C71U yielded a self-cleavage of 0.26.
U26C G33U U41C gave a self-cleavage of 0.41.
Work on U26C A47G U49A U60C U69A yielded a self-cleavage of 0.05.
In the case of A28C U43G U49C A56U, the self-cleavage is reported as 0.14.
For A28C G36C A45U G61C U78C, the self-cleavage was 0.14.
With A28G A45U A65G A77U U80C the self-cleavage was 0.26.
U26C A56U A57G U76A gave a self-cleavage of 0.12.
In the case of U26C A35G A57G U66C, the self-cleavage is reported as 0.4.
U26C U31C A64U U78C showed a self-cleavage of 0.08.
Variant U26C U31A A56G A64C has a self-cleavage of 0.
Variant U26C U67C U76C has a self-cleavage of 0.33.
A28G A56G A57U U72G showed a self-cleavage of 0.1.
In the case of U26C U31G U43C U74C, the self-cleavage is reported as 0.4.
In the case of U26G C32G U51A A77G, the self-cleavage is reported as 0.06.
A28C U41G A47G showed a self-cleavage of 0.19.
U26A U69C U78A gave a self-cleavage of 0.24.
Work on U26G A28G U41A C71A G73A yielded a self-cleavage of 0.05.
Variant A28G A35U U67C has a self-cleavage of 0.33.
Variant U26C U41C U43A U54C U66A has a self-cleavage of 0.06.
Variant A28G A47G A65G has a self-cleavage of 0.07.
U26C U51A U58C gave a self-cleavage of 0.19.
Variant U26C G63A U67C U74A U78C has a self-cleavage of 0.11.
Work on U26G U48C U51A yielded a self-cleavage of 0.42.
Variant U26C A45G A56U has a self-cleavage of 0.19.
Variant U26C G36A A56G U60C has a self-cleavage of 0.08.
In the case of U26C U43C U48C, the self-cleavage is reported as 0.14.
In the case of U26C G33C A47G A77U, the self-cleavage is reported as 0.16.
Work on U26C A64G U67C U69C yielded a self-cleavage of 0.15.
For A28G A45G G61A U72C U78C, the self-cleavage was 0.42.
